According to doi:10.1101/2025.05.13.653815, “Roles of the MO25 protein Pmo25 in contractile-ring stability and localization of the NDR kinase Sid2 during cytokinesis” (bioRxiv, 2025):
No constants are given. Whether binding was seen depends on the method and setting. For part of these data: In cells and extracts the contact can be indirect. Some entries that bind do so weakly or less than the wild type. Tags and fused reporters may be left off the sequences shown.

Sequences of proteins named here, by UniProt entry; tags and fusion partners are left off.
UniProt Q09196: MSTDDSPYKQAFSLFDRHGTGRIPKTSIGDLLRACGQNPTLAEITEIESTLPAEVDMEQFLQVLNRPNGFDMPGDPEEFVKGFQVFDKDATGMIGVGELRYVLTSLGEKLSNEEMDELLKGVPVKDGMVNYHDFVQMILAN

Legend:
[1] = biological target: BD-Cdc4 (full length Cdc4 in pGBT9) (S. pombe) (UniProt Q09196); assay: two-hybrid; AD-Pmo25 (pVP16) and BD-Cdc4 (pGBT9) co-transformed into S. cerevisiae MaV203; LacZ as a reporter
[2] = biological target: mYFP-Cdc4 (S. pombe) (UniProt Q09196); assay: co-IP; S. pombe cell extracts, IP buffer with 150 mM NaCl and 0.5% NP-40, pH 7.5, 4°C; anti-GFP polyclonal antibody on protein G Dynabeads; blots with anti-Myc and anti-GFP
[3] = biological target: T1, Pmo25-mECitrine (S. pombe) (UniProt Q9P7Q8); assay: as above
T1 sequence: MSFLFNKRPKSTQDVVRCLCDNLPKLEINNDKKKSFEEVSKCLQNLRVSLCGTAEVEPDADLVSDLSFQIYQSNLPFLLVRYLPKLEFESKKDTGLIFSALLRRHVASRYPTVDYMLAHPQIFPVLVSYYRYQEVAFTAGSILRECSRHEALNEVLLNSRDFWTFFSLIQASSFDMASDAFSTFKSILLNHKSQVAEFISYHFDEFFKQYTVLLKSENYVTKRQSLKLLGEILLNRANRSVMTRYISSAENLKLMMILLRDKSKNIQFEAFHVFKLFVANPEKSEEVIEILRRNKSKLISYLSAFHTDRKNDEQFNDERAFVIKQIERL

[4] = biological target: T2, BD-Ync13 NH2-terminus (1-590 aa) (S. pombe) (UniProt O13683); assay: two-hybrid; screen and assay: BD-Ync13 fragments (pGBT9) as baits, pACT2 prey library, S. cerevisiae MaV203; quadruple dropout medium with 3AT and LacZ coloration
T2 sequence: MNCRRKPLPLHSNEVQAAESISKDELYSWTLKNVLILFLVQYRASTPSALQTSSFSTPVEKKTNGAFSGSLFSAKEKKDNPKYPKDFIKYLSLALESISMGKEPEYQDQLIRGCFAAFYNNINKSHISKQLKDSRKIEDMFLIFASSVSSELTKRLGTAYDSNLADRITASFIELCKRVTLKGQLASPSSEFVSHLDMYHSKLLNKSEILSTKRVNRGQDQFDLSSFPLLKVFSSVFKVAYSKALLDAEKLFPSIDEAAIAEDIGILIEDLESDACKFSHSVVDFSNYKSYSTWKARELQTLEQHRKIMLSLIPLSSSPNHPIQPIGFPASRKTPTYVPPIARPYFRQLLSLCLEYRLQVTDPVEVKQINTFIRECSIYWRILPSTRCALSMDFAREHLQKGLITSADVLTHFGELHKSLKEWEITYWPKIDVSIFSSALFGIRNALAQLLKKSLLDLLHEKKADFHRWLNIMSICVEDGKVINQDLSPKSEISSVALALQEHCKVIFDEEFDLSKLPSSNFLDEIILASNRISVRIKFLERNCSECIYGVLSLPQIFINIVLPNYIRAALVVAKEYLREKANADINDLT

[5] = biological target: T3, BD-Ync13 COOH-terminus (591-1237 aa) (S. pombe) (UniProt O13683); assay: as above
T3 sequence: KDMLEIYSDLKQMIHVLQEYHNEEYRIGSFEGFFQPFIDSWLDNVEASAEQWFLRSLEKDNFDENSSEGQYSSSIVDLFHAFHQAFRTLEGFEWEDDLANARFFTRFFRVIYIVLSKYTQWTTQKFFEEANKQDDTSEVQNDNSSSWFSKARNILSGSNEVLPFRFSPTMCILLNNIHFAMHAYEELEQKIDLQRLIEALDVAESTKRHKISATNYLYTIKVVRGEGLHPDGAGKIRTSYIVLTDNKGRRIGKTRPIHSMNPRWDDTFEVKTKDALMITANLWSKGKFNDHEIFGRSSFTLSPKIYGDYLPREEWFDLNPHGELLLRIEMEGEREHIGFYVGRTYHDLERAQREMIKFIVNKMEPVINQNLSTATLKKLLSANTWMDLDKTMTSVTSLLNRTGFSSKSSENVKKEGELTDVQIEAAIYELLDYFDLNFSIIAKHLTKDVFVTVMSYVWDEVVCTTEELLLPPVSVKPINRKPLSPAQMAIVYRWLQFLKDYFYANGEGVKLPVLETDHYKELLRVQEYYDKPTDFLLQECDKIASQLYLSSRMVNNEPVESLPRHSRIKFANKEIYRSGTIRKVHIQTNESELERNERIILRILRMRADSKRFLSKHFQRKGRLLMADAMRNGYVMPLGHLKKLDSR

[6] = biological target: T4, MBP-Ync13-(591-1130)-6His (S. pombe, UniProt O13683 591-1130); assay: pull-down; MBP-Ync13 proteins held on amylose beads, Pmo25-6His proteins added for 1 h at 4°C in binding buffer (137 mM NaCl, pH 7.4, 0.5 mM DTT, 10% glycerol); SDS-PAGE, Coomassie Blue; both purified
T4 construct: The cloning of this truncation is not described; not shown: MBP, N-terminal, kept; His6, C-terminal, kept
T4 sequence (looked up): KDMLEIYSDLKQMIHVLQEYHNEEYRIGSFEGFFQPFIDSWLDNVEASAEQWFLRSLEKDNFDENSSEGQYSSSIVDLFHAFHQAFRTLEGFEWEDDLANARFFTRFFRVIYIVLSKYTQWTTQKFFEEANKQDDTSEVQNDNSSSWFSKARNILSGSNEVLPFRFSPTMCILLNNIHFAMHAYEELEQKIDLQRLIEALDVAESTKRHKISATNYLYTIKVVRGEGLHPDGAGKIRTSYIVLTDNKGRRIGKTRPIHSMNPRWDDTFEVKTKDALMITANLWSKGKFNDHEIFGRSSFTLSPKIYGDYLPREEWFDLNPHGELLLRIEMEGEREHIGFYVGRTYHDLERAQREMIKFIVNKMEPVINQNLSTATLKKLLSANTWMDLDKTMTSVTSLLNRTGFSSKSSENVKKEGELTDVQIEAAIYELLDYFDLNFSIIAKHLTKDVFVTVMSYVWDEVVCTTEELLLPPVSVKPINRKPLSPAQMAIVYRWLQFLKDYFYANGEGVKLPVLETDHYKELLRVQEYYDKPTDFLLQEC

B1: AD-Pmo25 (full length Pmo25 in the VP16 transcription activation domain vector pVP16) (protein, UniProt Q9P7Q8 1-329)
chain: T1 sequence
- binding [1]: binds weakly

B2: Pmo25-13Myc (protein, UniProt Q9P7Q8 1-329)
chain: T1 sequence
- binding [2]: binds

B3: Sid2-13Myc (enzyme, UniProt Q09898 1-607)
chain: MNRVNDMSPVEGDLGLQLSSEADKKFDAYMKRHGLFEPGNLSNNDKERNLEDQFNSMKLSPVASSKENYPDNHMHSKHISKLPIASPIPRGLDRSGELSYKDNNHWSDRSSTGSPRWENGSMNLSVEEMEKVVQPKVKRMATICQMFFLDHYFEQLHYLYTRKQRARLFEEQLLKEPDSRRDELVKRYNGRERVYLRKRRTRISHGDFQTITQVGQGGYGSVWLARKRDTKEIVALKIMNKSVLHKMDEIRHVLTERDILTTANSEWLVRLLYAFQDTSNIYLAMEFVPGGDFRTLLSNSGVLRDHHAKFYATEMFLAIDALHQLGYIHRDLKPENFLVGASGHIKLTDFGLSSGIISKKKIESMKIRLQEVNNVVVPERSMRERRQVFRTLLSQDPVYAHSVVGSPDYMAPEVLRGENYNHSVDYWSLGCIMYECLSGFPPFSGSNVNETWSNLKNWRKCFQRPHYDDPRDLEFNWRDDAWDFVCHCITDPKDRFCSLKQVMQHPYFSKIDWKNVRTAYRPPFVPDLNSEIDAGYFDDFTNENDMSKYKEVHEKQAAIANMVNTFNKPKRNAFIGFTFRHQKNSHPTSSSSALSSPLSAPSFGTLL
- binding [3]: binds

B4: Pmo25-(19-329)-6His (domain or fragment, S. pombe, UniProt Q9P7Q8 19-329, looked up)
chain: LCDNLPKLEINNDKKKSFEEVSKCLQNLRVSLCGTAEVEPDADLVSDLSFQIYQSNLPFLLVRYLPKLEFESKKDTGLIFSALLRRHVASRYPTVDYMLAHPQIFPVLVSYYRYQEVAFTAGSILRECSRHEALNEVLLNSRDFWTFFSLIQASSFDMASDAFSTFKSILLNHKSQVAEFISYHFDEFFKQYTVLLKSENYVTKRQSLKLLGEILLNRANRSVMTRYISSAENLKLMMILLRDKSKNIQFEAFHVFKLFVANPEKSEEVIEILRRNKSKLISYLSAFHTDRKNDEQFNDERAFVIKQIERL
notes: pET21a, between the N-terminal T7 tag and the C-terminal 6xHis tag; not shown: His6, C-terminal, kept
- binding [4]: no binding
- binding [5]: binds

B5: Pmo25-full length-6His (protein, UniProt Q9P7Q8 1-329)
chain: T1 sequence
- binding [6]: no binding
